In the supplement of paper PMC4967469:
A lower IC50 marks a more sensitive line; a fit beyond the top or the lowest dose is shown as a bound at that dose. AUC sums up the same curve from the lowest dose to the 256-fold higher top dose; values near 1 show little effect. For part of these data: The top dose, if marked as inferred, is not printed in the source and was worked back from the curve model.

Assays:
Test in all cases: Viability of human cancer cell lines after 72 h of drug (GDSC screen)
Salubrinal = compound: O=C(/C=C/c1ccccc1)NC(NC(=S)Nc1cccc2cccnc12)C(Cl)(Cl)Cl [Salubrinal]; conditions: top dose 16 µM; top dose inferred
Description: (§1)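 Human cancer cell lines in 384-well plates, medium with 10% serum, drug for 72 h over a 256-fold dose range (nine 2-fold or five 4-fold steps up to the top dose). Adherent lines were fixed and stained with the nucleic acid dye Syto60, suspension lines read with resazurin; signal relative to control wells, capped at 0 and 100%. One two-parameter sigmoid per drug and line, fitted in a mixed model over all curves with the slope shared within a line.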

piperlongumine = compound: COc1cc(/C=C/C(=O)N2CCC=CC2=O)cc(OC)c1OC [piperlongumine]; conditions: top dose 10 µM
Description: as §1

GW 441756 = compound: Cn1cc(/C=C2\C(=O)Nc3cccnc32)c2ccccc21 [GW 441756]; conditions: top dose 2 µM; top dose inferred
Description: as §1

GW843682X = compound: COc1cc2ncn(-c3cc(OCc4ccccc4C(F)(F)F)c(C(N)=O)s3)c2cc1OC [GW843682X]; conditions: top dose 0.256 µM
Description: as §1

PIK-93 = compound: CC(=O)Nc1nc(C)c(-c2ccc(Cl)c(S(=O)(=O)NCCO)c2)s1 [PIK-93]; conditions: top dose 20 µM
Description: as §1

ABT-263 = compound: CC1(C)CCC(c2ccc(Cl)cc2)=C(CN2CCN(c3ccc(C(=O)NS(=O)(=O)c4ccc(N[C@H](CCN5CCOCC5)CSc5ccccc5)c(S(=O)(=O)C(F)(F)F)c4)cc3)CC2)C1 [ABT-263]; conditions: top dose 2 µM; top dose inferred
Description: as §1

| Cell Line | AUC (Salubrinal) | IC50 (Salubrinal) [nM] | AUC (piperlongumine) | IC50 (piperlongumine) [nM] | AUC (GW 441756) | IC50 (GW 441756) [nM] | AUC (GW843682X) | IC50 (GW843682X) [nM] | AUC (PIK-93) | IC50 (PIK-93) [nM] | AUC (ABT-263) | IC50 (ABT-263) [nM] |
| --- | --- | --- | --- | --- | --- | --- | --- | --- | --- | --- | --- | --- |
| RL95-2 (endometrium, adherent) | 0.92 | > 16000 | 0.786 | 4270 | 0.959 | > 2000 | 0.451 | 11.8 | 0.902 | > 20000 |  |  |
| JSC-1 (B-cell lymphoma, suspension) |  |  |  |  | 0.987 | > 2000 | 0.464 | 12.8 | 0.449 | 912 | 0.987 | > 2000 |
| LU-65 (large cell lung carcinoma, suspension) | 0.924 | > 16000 | 0.976 | > 10000 | 0.987 | > 2000 | 0.854 | > 256 | 0.645 | 3410 |  |  |
| VAL (B-cell lymphoma, suspension) | 0.835 | 10600 | 0.815 | 5520 | 0.75 | 657 |  |  | 0.645 | 3160 | 0.631 | 288 |
| no-10 (glioma, adherent) | 0.902 | > 16000 | 0.729 | 3290 | 0.978 | > 2000 | 0.569 | 25.7 | 0.922 | > 20000 |  |  |
| TALL-1 (T-cell lymphoblastic leukaemia, suspension) | 0.937 | > 16000 |  |  |  |  | 0.469 | 13.2 | 0.933 | > 20000 |  |  |
| NCI-H748 (small cell lung carcinoma, suspension) | 0.919 | > 16000 |  |  |  |  | 0.888 | > 256 | 0.906 | > 20000 |  |  |
| CP67-MEL (melanoma, adherent) |  |  |  |  |  |  | 0.806 | > 256 |  |  |  |  |
| RS4-11 (leukaemia, suspension) | 0.888 | 15400 | 0.823 | 5260 |  |  | 0.426 | 10.2 | 0.362 | 540 |  |  |
| NCI-H2227 (small cell lung carcinoma, semi-adherent) | 0.961 | > 16000 | 0.938 | > 10000 | 0.957 | > 2000 |  |  | 0.72 | 5750 | 0.768 | 847 |
| KARPAS-620 (haematopoietic neoplasm, suspension) |  |  | 0.796 | 3940 | 0.988 | > 2000 | 0.261 | 3.75 | 0.329 | 451 | 0.39 | 65.5 |
| TK (B-cell lymphoma, suspension) | 0.888 | 15300 | 0.82 | 5110 | 0.988 | > 2000 |  |  | 0.738 | 5560 | 0.806 | 914 |
| TE-11 (oesophagus, adherent) |  |  | 0.873 | 8160 | 0.985 | > 2000 | 0.43 | 10.5 | 0.966 | > 20000 | 0.919 | > 2000 |
| D-542MG (glioma, adherent) | 0.848 | > 16000 | 0.798 | 6020 | 0.915 | > 2000 |  |  | 0.735 | 6930 | 0.922 | > 2000 |
| KP-N-YS (neuroblastoma, adherent) | 0.797 | 8880 |  |  |  |  | 0.498 | 15.8 | 0.655 | 3590 |  |  |
| JURL-MK1 (chronic myeloid leukaemia, suspension) | 0.963 | > 16000 | 0.926 | > 10000 | 0.987 | > 2000 |  |  | 0.75 | 6510 | 0.668 | 367 |
| HCE-4 (oesophagus, adherent) |  |  | 0.746 | 2790 |  |  | 0.502 | 16.2 | 0.991 | > 20000 |  |  |
| NK-92MI (lymphoid neoplasm, suspension) | 0.896 | > 16000 |  |  |  |  | 0.734 | 70.2 |  |  |  |  |
| SW954 (urogenital system, adherent) | 0.964 | > 16000 |  |  | 0.971 | > 2000 | 0.46 | 12.4 | 0.595 | 2290 |  |  |
| SCC-3 (B-cell lymphoma, suspension) | 0.949 | 16000 |  |  |  |  | 0.701 | 49.2 | 0.951 | > 20000 |  |  |
| KMS-12-BM (myeloma, suspension) | 0.828 | 7630 |  |  | 0.985 | > 2000 | 0.444 | 11.6 | 0.647 | 2950 |  |  |
| NB12 (neuroblastoma, adherent) | 0.956 | > 16000 | 0.771 | 5200 | 0.976 | > 2000 |  |  | 0.901 | > 20000 | 0.605 | 267 |
| SW982 (soft tissue, adherent) |  |  | 0.661 | 1780 | 0.985 | > 2000 | 0.573 | 25.6 | 0.749 | 6640 | 0.985 | > 2000 |
| TE-441-T (rhabdomyosarcoma, adherent) | 0.798 | 7290 |  |  |  |  | 0.898 | > 256 | 0.835 | 12500 |  |  |
| KLE (endometrium, adherent) |  |  | 0.817 | > 10000 | 0.938 | > 2000 | 0.76 | 142 | 0.852 | > 20000 | 0.953 | > 2000 |
| KASUMI-1 (acute myeloid leukaemia, suspension) | 0.985 | > 16000 | 0.78 | 4120 | 0.948 | > 2000 | 0.931 | > 256 |  |  |  |  |
| RC-K8 (B-cell lymphoma, suspension) | 0.958 | > 16000 | 0.984 | > 10000 | 0.993 | > 2000 |  |  | 0.858 | 13100 | 0.723 | 485 |
